From patent publication US6410566B1, “Cyclic amine derivatives and their use as drugs” (Teijin Limited, priority 2000, dated 2002)
Some entries share one result that the patent states for a list of compounds. At least one structure is not confirmed: it was looked up by name or label, or the drawing left a doubt.

Biological target: T1, binding of human MIP-1α to THP-1 cells (Homo sapiens, UniProt P32246)
T1 construct: endogenous in cells; host or cells: THP-1 (human monocytic leukemia cell line), whole cells
T1 sequence (P32246 1-355): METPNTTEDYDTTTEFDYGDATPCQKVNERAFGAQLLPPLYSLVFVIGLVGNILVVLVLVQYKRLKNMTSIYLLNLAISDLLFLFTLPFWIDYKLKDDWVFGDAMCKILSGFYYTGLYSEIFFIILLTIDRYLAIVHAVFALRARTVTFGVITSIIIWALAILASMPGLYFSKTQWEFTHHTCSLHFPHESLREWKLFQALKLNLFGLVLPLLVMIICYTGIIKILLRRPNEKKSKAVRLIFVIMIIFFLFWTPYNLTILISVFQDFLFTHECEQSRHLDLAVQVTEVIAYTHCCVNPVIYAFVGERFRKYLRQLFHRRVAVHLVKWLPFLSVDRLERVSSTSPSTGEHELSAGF
Test: Inhibition of MIP-1α binding to THP-1 cells
Conditions: at 2 μM

inhibition of MIP-1α binding to THP-1 cells | SMILES
> 80% | CCOc1cccc(C(=O)NC(CCSC)C(=O)NCC2CCN(Cc3ccc(Cl)cc3)CC2)c1 (centres unmarked) [compound 2093]
> 80% | CCOc1cccc(C(=O)N[C@@H](C(=O)NCC2CCN(Cc3ccc(Cl)cc3)CC2)C(C)OCc2ccccc2)c1 (some centres unmarked) [compound 2103]

Same assay, conditions: at 10 μM

inhibition of MIP-1α binding to THP-1 cells | SMILES
20-50% | COCC(NC(=O)c1ccc(SC)s1)C(=O)NCC1CCN(Cc2ccc(Cl)cc2)CC1 (centres unmarked) [compound 822]
20-50% | O=C(CNC(=O)c1ccc(C(=O)c2ccccc2)cc1)NCC1CCN(Cc2ccc(Cl)cc2)CC1 [compound 472]
> 80% | CCOc1cccc(C(=O)NC2(C(=O)NCC3CCN(Cc4ccc(Cl)cc4)CC3)CC2)c1 [compound 803]
20-50% | COC(=O)c1cccc(C(=O)N2CCCC2C(=O)NCC2CCN(Cc3ccc(Cl)cc3)CC2)c1 (centres unmarked) [compound 695]
20-50% | O=C(NCC1CCN(Cc2ccc(Cl)cc2)CC1)C1CCCN1C(=O)c1c[nH]c2ccccc12 (centres unmarked) [compound 739]
20-50% | CC(C)c1ccc(C(=O)NC(C(=O)NCC2CCN(Cc3ccc(Cl)cc3)CC2)C(C)C)cc1 (centres unmarked) [compound 648]
20-50% | O=C(NC(COCc1ccccc1)C(=O)NCC1CCN(Cc2ccc(Cl)cc2)CC1)c1cc2ccccc2[nH]1 (centres unmarked) [compound 1071]
> 80% | NC(=O)CCC(NC(=O)c1ccccc1)C(=O)NCC1CCN(Cc2ccc(Cl)cc2)CC1 (centres unmarked) [compound 1008]
20-50% | CN(C)c1cccc(C(=O)N2CCCC2C(=O)NCC2CCN(Cc3ccc(Cl)cc3)CC2)c1 (centres unmarked) [compound 691]
20-50% | O=C(NCC1CCN(Cc2ccc(Cl)cc2)CC1)C1CCCN1C(=O)c1cc2ccccc2s1 (centres unmarked) [compound 712]
20-50% | CC(NC(=O)c1ccco1)C(=O)NCC1CCN(Cc2ccc(Cl)cc2)CC1 (centres unmarked) [compound 598]
20-50% | Cc1ccc(C(=O)N2CCCC2C(=O)NCC2CCN(Cc3ccc(Cl)cc3)CC2)s1 (centres unmarked) [compound 706]
20-50% | Cc1cc(C(=O)NC(C(=O)NCC2CCN(Cc3ccc(Cl)cc3)CC2)C(C)C)c(C)n1C (centres unmarked) [compound 666]
20-50% | CC(NC(=O)c1ccc(N)cc1)C(=O)NCC1CCN(Cc2ccc(Cl)cc2)CC1 (centres unmarked) [compound 588]
> 80% | NC(=O)CCC(NC(=O)c1ccc(F)c(C(F)(F)F)c1)C(=O)NCC1CCN(Cc2ccc(Cl)cc2)CC1 (centres unmarked) [compound 817]
20-50% | CN(CC(=O)NCC1CCCN1Cc1ccc(Cl)cc1)C(=O)c1ccccc1 (centres unmarked) [compound 338]
> 80% | O=C(NCC1CCN(Cc2ccc(Cl)cc2)CC1)C1CCCN1C(=O)c1ccoc1 (centres unmarked) [compound 743]
> 80% | COc1cccc(C(=O)NC(CCC(N)=O)C(=O)NCC2CCN(Cc3ccc(Cl)cc3)CC2)c1 (centres unmarked) [compound 1009]
20-50% | CC(=O)Nc1ccc(C(=O)N2CCCC2C(=O)NCC2CCN(Cc3ccc(Cl)cc3)CC2)cc1 (centres unmarked) [compound 726]
20-50% | CC(C)C(NC(=O)c1ccc([N+](=O)[O-])cc1)C(=O)NCC1CCN(Cc2ccc(Cl)cc2)CC1 (centres unmarked) [compound 652]

inhibition of MIP-1α binding to THP-1 cells | SMILES
> 80% | CC(C)CC(NC(=O)c1cccc(OC(F)(F)F)c1)C(=O)NCC1CCN(Cc2ccc(Cl)cc2)CC1 (centres unmarked) [compound 1002]
20-50% | CC(C)C(NC(=O)c1ccc(C(C)(C)C)o1)C(=O)NCC1CCN(Cc2ccc(Cl)cc2)CC1 (centres unmarked) [compound 682]
20-50% | CCOc1cc(C(=O)N[C@@H](C)C(=O)NCC2CCN(Cc3ccc(Cl)cc3)CC2)cc(OCC)c1OCC [compound 1026]
20-50% | CC(C)C(NC(=O)c1ccc(S(=O)(=O)C(C)C)s1)C(=O)NCC1CCN(Cc2ccc(Cl)cc2)CC1 (centres unmarked) [compound 684]
20-50% | COCC(NC(=O)c1c[nH]c2ccccc12)C(=O)NCC1CCN(Cc2ccc(Cl)cc2)CC1 (centres unmarked) [compound 827]
20-50% | COc1cccc(NC(=O)CCCC(=O)NC2CCN(Cc3ccc(Cl)cc3)C2)c1 (centres unmarked) [compound 226]
20-50% | CC(NC(=O)c1cc(C(F)(F)F)ccc1C(F)(F)F)C(=O)NCC1CCN(Cc2ccc(Cl)cc2)CC1 (centres unmarked) [compound 563]
20-50% | COc1cc(C(=O)NCC(=O)NCC2CCN(Cc3ccc(Cl)cc3)CC2)c(N)c(OC)c1OC [compound 1048]
> 80% | CC(C)C(NC(=O)c1ccc(Br)o1)C(=O)NCC1CCN(Cc2ccc(Cl)cc2)CC1 (centres unmarked) [compound 670]
> 80% | COc1cccc(C(=O)NC(C)(C)C(=O)NCC2CCN(Cc3ccc(Cl)cc3)CC2)c1 [compound 782]
20-50% | CC(=O)c1ccc(NC(=O)CCCC(=O)NC2CCN(Cc3ccc(Cl)cc3)C2)cc1 (centres unmarked) [compound 231]
20-50% | COC(=O)c1ccc(C(=O)N2CCCC2C(=O)NCC2CCN(Cc3ccc(Cl)cc3)CC2)cc1 (centres unmarked) [compound 700]
20-50% | CC(C)c1cccc(C(=O)NC(C(=O)NCC2CCN(Cc3ccc(Cl)cc3)CC2)C(C)C)c1O (centres unmarked) [compound 635]
20-50% | Cc1cccc(NC(=O)CCCC(=O)NC2CCN(Cc3ccc(Cl)cc3)C2)n1 (centres unmarked) [compound 234]
> 80% | Cc1cccc(C(=O)NC(CC(C)C)C(=O)NCC2CCN(Cc3ccc(Cl)cc3)CC2)c1 (centres unmarked) [compound 999]
20-50% | COc1ccc(NC(=O)CCCC(=O)NC2CCN(Cc3ccc(Cl)cc3)C2)cc1 (centres unmarked) [compound 228]
20-50% | CCCCCOc1ccc(C(=O)NC(C(=O)NCC2CCN(Cc3ccc(Cl)cc3)CC2)C(C)C)cc1 (centres unmarked) [compound 653]
> 80% | C[C@@H](NC(=O)c1cc(OCC(F)(F)F)ccc1OCC(F)(F)F)C(=O)NCC1CCN(Cc2ccc(Cl)cc2)CC1 [compound 1038]
20-50% | O=C(NC1(C(=O)NCC2CCN(Cc3ccc(Cl)cc3)CC2)CC1)c1cccc(Br)c1 [compound 806]
20-50% | COCC(NC(=O)c1cc(-c2ccccc2)oc1C)C(=O)NCC1CCN(Cc2ccc(Cl)cc2)CC1 (centres unmarked) [compound 825]

inhibition of MIP-1α binding to THP-1 cells | SMILES
20-50% | O=C(CNC(=O)c1cccc([N+](=O)[O-])c1)NC1CCN(Cc2ccc(Cl)cc2)CC1 [compound 385]
20-50% | O=C(CNC(=O)c1cc(Cl)cc(Cl)c1)NC1CCN(Cc2ccc(Cl)cc2)C1 (centres unmarked) [compound 41]
20-50% | O=C(CNC(=O)c1cccc(C(F)(F)F)c1F)NC1CCN(Cc2ccc(Cl)cc2)C1 (centres unmarked) [compound 50]
20-50% | CC(c1ccccc1)N1CCC(CNC(=O)CNC(=O)c2cccc(C(F)(F)F)c2)CC1 (racemic) [compound 933]
20-50% | CCOc1cc(C(=O)NC(CC(C)C)C(=O)NCC2CCN(Cc3ccc(Cl)cc3)CC2)ccc1OC (centres unmarked) [compound 1055]
20-50% | Cc1ccc(C(=O)NC(C(=O)NCC2CCN(Cc3ccc(Cl)cc3)CC2)C(C)C)s1 (centres unmarked) [compound 675]
20-50% | Cn1c(C(=O)N2CCCC2C(=O)NCC2CCN(Cc3ccc(Cl)cc3)CC2)cc2ccccc21 (centres unmarked) [compound 714]
20-50% | O=C(CNC(=O)c1cc2ccccc2s1)NCC1CCN(Cc2ccc(Cl)cc2)CC1 [compound 508]
20-50% | COCC(NC(=O)c1ccc(F)c(C(F)(F)F)c1)C(=O)NCC1CCN(Cc2ccc(Cl)cc2)CC1 (centres unmarked) [compound 830]
> 80% | CCOc1cccc(C(=O)N[C@@H](C)C(=O)NCC2CCN(Cc3ccc(Cl)cc3)CC2)c1 [compound 1029]
> 80% | O=C(NCC(=O)N(CCC(c1ccccc1)c1ccccc1)CC1CCN(Cc2ccc(Cl)cc2)CC1)c1cccc(C(F)(F)F)c1 [compound 521]
20-50% | O=C(CNC(=O)c1cccc(C(F)(F)F)c1)NCC1CCN(Cc2ccc(Cl)cc2F)CC1 [compound 938]
20-50% | CC(C)C(NC(=O)c1ccc([N+](=O)[O-])o1)C(=O)NCC1CCN(Cc2ccc(Cl)cc2)CC1 (centres unmarked) [compound 671]
20-50% | NC(=O)CCC(NC(=O)c1ccc(C(F)(F)F)cc1)C(=O)NCC1CCN(Cc2ccc(Cl)cc2)CC1 (centres unmarked) [compound 813]
20-50% | Nc1cccc(C(=O)N2CCCC2C(=O)NCC2CCN(Cc3ccc(Cl)cc3)CC2)c1 (centres unmarked) [compound 728]
20-50% | CC(=O)c1ccc(C(=O)NCC(=O)NCC2CCN(Cc3ccc(Cl)cc3)CC2)cc1 [compound 473]
20-50% | CC(NC(=O)c1ccc(C(C)(C)C)o1)C(=O)NCC1CCN(Cc2ccc(Cl)cc2)CC1 (centres unmarked) [compound 575]
> 80% | CCOc1cccc(C(=O)NC(C(=O)NCC2CCN(Cc3ccc(Cl)cc3)CC2)C(C)C)c1 (centres unmarked) [compound 627]
20-50% | CC(C)Oc1ccc(C(=O)NC(C(=O)NCC2CCN(Cc3ccc(Cl)cc3)CC2)C(C)C)cc1 (centres unmarked) [compound 649]
20-50% | CC(NC(=O)c1cccc(N)c1)C(=O)NCC1CCN(Cc2ccc(Cl)cc2)CC1 (centres unmarked) [compound 603]
